Some of the results follow. These are noisy estimates, calculated here from bound and input reads.
target: T1, Pho4 (S. cerevisiae) (UniProt P07270); assay: relative binding free energy (BET-seq); higher = weaker binding; conditions: reference: library average
T1 sequence: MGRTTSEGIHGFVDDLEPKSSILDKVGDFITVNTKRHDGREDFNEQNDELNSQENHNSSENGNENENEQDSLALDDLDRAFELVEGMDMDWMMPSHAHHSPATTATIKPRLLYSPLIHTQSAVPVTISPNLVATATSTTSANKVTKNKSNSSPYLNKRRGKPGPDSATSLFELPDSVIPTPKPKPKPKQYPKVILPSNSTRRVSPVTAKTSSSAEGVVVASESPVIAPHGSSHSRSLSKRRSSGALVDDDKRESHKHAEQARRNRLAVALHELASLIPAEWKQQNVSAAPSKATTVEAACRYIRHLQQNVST

GGCGTCACGTGGAGAG was tested. Which “relative binding free energy” value did it give?
Its value is 0.15 kcal/mol.

GGGGGCACGTGACGTC was tested. Which “relative binding free energy” value did it give?
Its value is 0.07 kcal/mol.

How did the “relative binding free energy” value turn out when TATATCACGTGAGCTT was run?
Its value is 0.2 kcal/mol.

For TTAAACACGTGATGTA, which “relative binding free energy” value is on record?
The value was 0.08 kcal/mol.

How did the “relative binding free energy” value turn out when TACGGCACGTGTTAGG was run?
Its value is 0.12 kcal/mol.

With AGTGACACGTGTGGTA as the sequence, how does the “relative binding free energy” value read?
The value was -0.02 kcal/mol.

Which “relative binding free energy” value does the source give for TTAGACACGTGAGTGG here?
Its value is 0.28 kcal/mol.

ATGGGCACGTGATGCA was tested. Which “relative binding free energy” value did it give?
Its value is -0.23 kcal/mol.

Which “relative binding free energy” value does the source give for AGTGTCACGTGGACGT here?
Its value is -0.09 kcal/mol.

With TAGTGCACGTGAGCTT as the sequence, how does the “relative binding free energy” value read?
The value was 0.14 kcal/mol.

How did the “relative binding free energy” value turn out when CTTGTCACGTGATTTA was run?
Its value is 0.28 kcal/mol.

ATGTTCACGTGATAGG was tested. Which “relative binding free energy” value did it give?
Its value is 0.32 kcal/mol.

Which “relative binding free energy” value does the source give for AGATACACGTGGAAGG here?
Its value is 0.14 kcal/mol.

TAAAGCACGTGGGAGT was tested. Which “relative binding free energy” value did it give?
The value was -0.11 kcal/mol.

AAGTGCACGTGATCGG was tested. Which “relative binding free energy” value did it give?
Its value is -0.08 kcal/mol.

With TGGGACACGTGACGGG as the sequence, how does the “relative binding free energy” value read?
Its value is 0.11 kcal/mol.

TTGCTCACGTGTACGT was tested. Which “relative binding free energy” value did it give?
Its value is 0.38 kcal/mol.

Which “relative binding free energy” value does the source give for GTGTACACGTGCCGGG here?
Its value is -0.09 kcal/mol.

With TTGTTCACGTGGCAAA as the sequence, how does the “relative binding free energy” value read?
The value was 0.26 kcal/mol.

How did the “relative binding free energy” value turn out when CGTGGCACGTGTTCTG was run?
The value was -0.1 kcal/mol.

TCGAGCACGTGGTTTA was tested. Which “relative binding free energy” value did it give?
The value was -0.04 kcal/mol.

With CGCAGCACGTGTGGTT as the sequence, how does the “relative binding free energy” value read?
Its value is -0.04 kcal/mol.

How did the “relative binding free energy” value turn out when CTAAGCACGTGGCGTG was run?
Its value is -0.16 kcal/mol.

How did the “relative binding free energy” value turn out when GTTGGCACGTGGGGTT was run?
Its value is -0.13 kcal/mol.

How did the “relative binding free energy” value turn out when GGGTACACGTGCGTTG was run?
The value was -0.04 kcal/mol.

With AAGGGCACGTGGGAAT as the sequence, how does the “relative binding free energy” value read?
The value was 0.02 kcal/mol.

How did the “relative binding free energy” value turn out when CGGGTCACGTGCTCGG was run?
Its value is 0.02 kcal/mol.

Which “relative binding free energy” value does the source give for GGCTTCACGTGGTTGG here?
The value was 0.35 kcal/mol.

GGTTTCACGTGAGGCC was tested. Which “relative binding free energy” value did it give?
The value was 0.5 kcal/mol.

How did the “relative binding free energy” value turn out when GTTTACACGTGTTATG was run?
The value was 0.14 kcal/mol.

How did the “relative binding free energy” value turn out when TCGGTCACGTGAGTGT was run?
The value was 0.29 kcal/mol.

How did the “relative binding free energy” value turn out when GAAATCACGTGGAGTT was run?
The value was 0.35 kcal/mol.

TGTGTCACGTGCTACG was tested. Which “relative binding free energy” value did it give?
Its value is 0.04 kcal/mol.

TGGCGCACGTGTGCTT was tested. Which “relative binding free energy” value did it give?
Its value is -0.07 kcal/mol.

Which “relative binding free energy” value does the source give for TCGCGCACGTGAGGGT here?
Its value is -0.04 kcal/mol.

Which “relative binding free energy” value does the source give for AGTGACACGTGGTGGG here?
The value was -0.01 kcal/mol.

GGCATCACGTGATGGA was tested. Which “relative binding free energy” value did it give?
Its value is 0.36 kcal/mol.

With TGAGGCACGTGTATAA as the sequence, how does the “relative binding free energy” value read?
The value was -0.08 kcal/mol.

With CTTAACACGTGTTGGT as the sequence, how does the “relative binding free energy” value read?
The value was -0.09 kcal/mol.

For GGGAGCACGTGCTGTT, which “relative binding free energy” value is on record?
The value was -0.16 kcal/mol.

How did the “relative binding free energy” value turn out when GTAGGCACGTGATGGG was run?
Its value is 0.01 kcal/mol.

How did the “relative binding free energy” value turn out when TATAGCACGTGATTAG was run?
Its value is 0 kcal/mol.

Which “relative binding free energy” value does the source give for CAGTTCACGTGGGCTT here?
Its value is 0.18 kcal/mol.

How did the “relative binding free energy” value turn out when ATGTGCACGTGTGACT was run?
Its value is 0.01 kcal/mol.

For TTGTTCACGTGGATGT, which “relative binding free energy” value is on record?
Its value is 0.23 kcal/mol.

With TTTTTCACGTGGCCTT as the sequence, how does the “relative binding free energy” value read?
The value was 0.21 kcal/mol.

GGTTTCACGTGCTTAG was tested. Which “relative binding free energy” value did it give?
The value was 0.25 kcal/mol.

GGGTTCACGTGCTGTT was tested. Which “relative binding free energy” value did it give?
Its value is 0.15 kcal/mol.

CTGTTCACGTGTGGAG was tested. Which “relative binding free energy” value did it give?
The value was 0.18 kcal/mol.

With AGGTGCACGTGGAGTT as the sequence, how does the “relative binding free energy” value read?
The value was -0.07 kcal/mol.

AGGGCCACGTGTGTTT was tested. Which “relative binding free energy” value did it give?
The value was -0.05 kcal/mol.

With TGGCACACGTGGGTTG as the sequence, how does the “relative binding free energy” value read?
Its value is -0.04 kcal/mol.

Which “relative binding free energy” value does the source give for ATCGTCACGTGGTTAG here?
The value was 0.09 kcal/mol.

For TGAGACACGTGTGTAT, which “relative binding free energy” value is on record?
The value was 0.11 kcal/mol.

Which “relative binding free energy” value does the source give for GGTGGCACGTGGCAAT here?
The value was 0.1 kcal/mol.

Which “relative binding free energy” value does the source give for TTTTACACGTGAATGC here?
Its value is 0.39 kcal/mol.

Which “relative binding free energy” value does the source give for TGTCTCACGTGGGCGT here?
The value was 0.12 kcal/mol.

For TTATCCACGTGTGTGT, which “relative binding free energy” value is on record?
The value was -0.01 kcal/mol.

TGTCGCACGTGGGTTG was tested. Which “relative binding free energy” value did it give?
The value was -0.18 kcal/mol.

For CAGGTCACGTGGTGGA, which “relative binding free energy” value is on record?
The value was -0.17 kcal/mol.

TGAAACACGTGAAGGG was tested. Which “relative binding free energy” value did it give?
Its value is 0.19 kcal/mol.

With TTAGTCACGTGGCTGA as the sequence, how does the “relative binding free energy” value read?
Its value is 0.09 kcal/mol.

With TGGGCCACGTGCGGAT as the sequence, how does the “relative binding free energy” value read?
The value was -0.19 kcal/mol.

Which “relative binding free energy” value does the source give for TATGGCACGTGGTGAG here?
The value was -0.08 kcal/mol.

How did the “relative binding free energy” value turn out when ATTGGCACGTGTATTA was run?
The value was -0.04 kcal/mol.

With GAGATCACGTGTGTGC as the sequence, how does the “relative binding free energy” value read?
Its value is 0.13 kcal/mol.

TGTAACACGTGGAAGG was tested. Which “relative binding free energy” value did it give?
Its value is 0.06 kcal/mol.

Which “relative binding free energy” value does the source give for GTACTCACGTGCGGTT here?
Its value is 0.13 kcal/mol.

AGGGGCACGTGTAAAT was tested. Which “relative binding free energy” value did it give?
Its value is -0.01 kcal/mol.

For GAGAGCACGTGGGGTG, which “relative binding free energy” value is on record?
The value was -0.17 kcal/mol.

Which “relative binding free energy” value does the source give for TGTTCCACGTGTTGAA here?
The value was 0.18 kcal/mol.

TTAGTCACGTGTGGTT was tested. Which “relative binding free energy” value did it give?
Its value is 0.22 kcal/mol.

For CGTGTCACGTGTGGTT, which “relative binding free energy” value is on record?
The value was 0.03 kcal/mol.

Which “relative binding free energy” value does the source give for TTGGTCACGTGTTTGG here?
The value was 0.23 kcal/mol.

Which “relative binding free energy” value does the source give for TGTCTCACGTGGTATA here?
Its value is 0.25 kcal/mol.

Which “relative binding free energy” value does the source give for GTGTTCACGTGCCTTT here?
Its value is 0.28 kcal/mol.

With TTCAGCACGTGTTAAT as the sequence, how does the “relative binding free energy” value read?
The value was 0.01 kcal/mol.

Which “relative binding free energy” value does the source give for AGGGCCACGTGTGGTT here?
The value was -0.01 kcal/mol.

With GGATTCACGTGGAGGG as the sequence, how does the “relative binding free energy” value read?
Its value is 0.25 kcal/mol.

With CTATTCACGTGGGCGT as the sequence, how does the “relative binding free energy” value read?
Its value is 0.04 kcal/mol.

TTTATCACGTGATACT was tested. Which “relative binding free energy” value did it give?
The value was 0.06 kcal/mol.

AGTGTCACGTGGTAAT was tested. Which “relative binding free energy” value did it give?
The value was -0.03 kcal/mol.

Which “relative binding free energy” value does the source give for GTGAACACGTGCTTGT here?
Its value is -0.03 kcal/mol.

How did the “relative binding free energy” value turn out when CGGGTCACGTGAAGGA was run?
Its value is 0.18 kcal/mol.

TATCGCACGTGAGTTA was tested. Which “relative binding free energy” value did it give?
Its value is 0.1 kcal/mol.

With AAGTGCACGTGTGTGG as the sequence, how does the “relative binding free energy” value read?
The value was -0.03 kcal/mol.

For GCGCGCACGTGTGAGT, which “relative binding free energy” value is on record?
Its value is 0.11 kcal/mol.

With CGGAACACGTGGGATT as the sequence, how does the “relative binding free energy” value read?
The value was -0.02 kcal/mol.

Which “relative binding free energy” value does the source give for GATAGCACGTGTTGAG here?
Its value is -0.08 kcal/mol.

How did the “relative binding free energy” value turn out when TGTGCCACGTGCTGGG was run?
The value was -0.15 kcal/mol.

With GGTAGCACGTGCGATT as the sequence, how does the “relative binding free energy” value read?
Its value is -0.02 kcal/mol.

For TTCATCACGTGTGAGT, which “relative binding free energy” value is on record?
Its value is 0.18 kcal/mol.

CGTTTCACGTGTCGGT was tested. Which “relative binding free energy” value did it give?
Its value is 0.33 kcal/mol.

With GTGCTCACGTGGATGT as the sequence, how does the “relative binding free energy” value read?
Its value is 0.33 kcal/mol.

For TTGAGCACGTGGATGG, which “relative binding free energy” value is on record?
The value was -0.17 kcal/mol.

How did the “relative binding free energy” value turn out when ATGTGCACGTGCTATG was run?
Its value is -0.09 kcal/mol.

How did the “relative binding free energy” value turn out when TTTCGCACGTGAGTTA was run?
Its value is 0.21 kcal/mol.

How did the “relative binding free energy” value turn out when GCGTACACGTGCGGGT was run?
Its value is 0.09 kcal/mol.

For GGTTTCACGTGGTGTT, which “relative binding free energy” value is on record?
Its value is 0.3 kcal/mol.

How did the “relative binding free energy” value turn out when CGTGACACGTGGTGGT was run?
Its value is -0.06 kcal/mol.

With TCACGCACGTGTGGAG as the sequence, how does the “relative binding free energy” value read?
The value was 0.11 kcal/mol.

CGGGGCACGTGGTGGT was tested. Which “relative binding free energy” value did it give?
The value was -0.15 kcal/mol.

For GGGTCCACGTGTGGCG, which “relative binding free energy” value is on record?
Its value is 0.06 kcal/mol.

ATCGTCACGTGTGTAG was tested. Which “relative binding free energy” value did it give?
Its value is 0.09 kcal/mol.

Which “relative binding free energy” value does the source give for GTATTCACGTGCGTGT here?
Its value is 0.13 kcal/mol.

For TATGACACGTGTTTGT, which “relative binding free energy” value is on record?
The value was 0.01 kcal/mol.

With TGCTGCACGTGTTTAG as the sequence, how does the “relative binding free energy” value read?
The value was -0.19 kcal/mol.

Which “relative binding free energy” value does the source give for TGCAGCACGTGGGGAT here?
Its value is -0.3 kcal/mol.

Which “relative binding free energy” value does the source give for TAGGTCACGTGTCCTG here?
The value was 0.06 kcal/mol.

TGCATCACGTGGAGGG was tested. Which “relative binding free energy” value did it give?
The value was 0.08 kcal/mol.

Which “relative binding free energy” value does the source give for ACTTGCACGTGGGGAG here?
Its value is -0.21 kcal/mol.

GTTAGCACGTGCGTAG was tested. Which “relative binding free energy” value did it give?
Its value is -0.01 kcal/mol.

With TTTGCCACGTGAGTTT as the sequence, how does the “relative binding free energy” value read?
The value was 0.23 kcal/mol.

With GGAGGCACGTGACATT as the sequence, how does the “relative binding free energy” value read?
The value was 0.16 kcal/mol.

With GGCTTCACGTGGGTCG as the sequence, how does the “relative binding free energy” value read?
Its value is 0.3 kcal/mol.

— the BET-seq Pho4 binding data (Le et al. 2018)
